Measured values published in paper PMC6451091.
This is one part of the list. For part of these data: At the low end of the ranking the order means little. For part of these data: Measured with an extract: partners may take part in the binding.

How the values were obtained:
Settings in all cases: 20 mM HEPES pH 7.9, 100 mM NaCl, 1 mM DTT, 0.2 mg/mL BSA, 0.02% Triton X-100, 2% milk, 0.4 mg/mL salmon testes DNA; 1 h; temperature not stated; high values mean tight binding; double strand, one strand shown; sequences stand for … in GCCTAGCAC…GTGCTAGGTCTTGATTCGCTTGACGCTGCTG
PU.1 (IVT) = PU.1 (IVT) (UniProt P17947); assay: protein-binding microarray (PBM)
[1] = target: PU.1 (endogenous, THP-1 nuclear extract) (UniProt P17947); assay: nuclear extract protein-binding microarray (nextPBM)
[2] = target: T1, FLI1 (endogenous, THP-1 nuclear extract) (UniProt Q01543); assay: as above
T1 sequence: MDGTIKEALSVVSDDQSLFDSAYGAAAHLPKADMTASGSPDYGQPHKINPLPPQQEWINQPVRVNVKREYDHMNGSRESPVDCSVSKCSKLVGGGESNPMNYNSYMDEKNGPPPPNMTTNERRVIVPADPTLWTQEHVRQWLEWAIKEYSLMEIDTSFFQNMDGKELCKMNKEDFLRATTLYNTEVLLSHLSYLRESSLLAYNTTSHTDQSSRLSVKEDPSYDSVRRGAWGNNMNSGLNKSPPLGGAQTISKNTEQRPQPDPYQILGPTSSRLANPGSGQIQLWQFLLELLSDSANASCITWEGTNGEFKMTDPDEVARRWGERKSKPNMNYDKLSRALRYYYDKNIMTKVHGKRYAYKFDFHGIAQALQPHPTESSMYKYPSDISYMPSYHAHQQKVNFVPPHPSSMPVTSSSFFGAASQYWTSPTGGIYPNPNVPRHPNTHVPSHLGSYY

| Sequence | binding signal (PU.1 (IVT)) [z-score] | binding signal [1] [z-score] | binding signal [2] [z-score] |
| --- | --- | --- | --- |
| CAAAAAGGGAAGTGGATTCT | 6.79 | 7 | 2.93 |
| GAAAAGAGGAAGTCATACTG | 8.35 | 7.5 | 4.19 |
| TTAGAGGGGAACTGCAAGGC | 1.64 | 1.8 | 0.0869 |
| TGATGGAGGAAGTGGTAAGA | 3.63 | 3.26 | 2.36 |
| AAAAAAAGGAACTGGCTGGA | 4.08 | 4.19 | 1.5 |
| CCTTGGAGGAAGTGAGTGGG | 3.31 | 3.25 | 2.27 |
| TCTTTGAGGAAGTGAGAAAG | 4.74 | 5.58 | 2.31 |
| CGAAAGGGGAAGTGCGAAAC | 6.97 | 7 | 3.15 |
| AAAAAAAGGAAGTGGGAGCT | 6.02 | 6.53 | 2.99 |
| AATTTGAGGAAGTGGGAAAG | 6.62 | 6.82 | 3.16 |
| ACTTTGGGGAAGTGAAGACC | 4.3 | 4.71 | 1.58 |
| AAAAAAAGGAAGTGGACCGT | 6.55 | 6.67 | 3.12 |
| GAAAACTGGAAGTCCCATAG | 1.91 | 1.92 | 1.73 |
| AAAAGGAGGAAGTACTGTGA | 7.12 | 7.06 | 3.39 |
| CGAAAGGGGAAGTGCTTAAC | 7.08 | 7.01 | 3.6 |
| GATAAGAGGAAGTCCTCTAT | 5.51 | 6.55 | 2.65 |
| CAAGGAGGGAAGTGGGAATG | 2.53 | 2.56 | 1.35 |
| AGAAAAAGGAAGTGAGCAAA | 5.53 | 5.79 | 2.64 |
| AAAAAAAGGAACTGGCGAGA | 4.12 | 3.86 | 1.68 |

| Sequence | binding signal (PU.1 (IVT)) [z-score] | binding signal [1] [z-score] | binding signal [2] [z-score] |
| --- | --- | --- | --- |
| TAAGAAGGGAAGTGAACTAA | 3.45 | 2.87 | 1.61 |
| GGAAAGAGGAAGGGCATGGG | 3.55 | 4.23 | 1.53 |
| CGAAAGGGGAAGTGCTATAC | 7.3 | 7.34 | 3.3 |
| GAAAACAGGTAGTCCCATAG | 1.64 | 1.62 | 0.287 |
| CAAATAAGGAAGTGACAACA | 5.99 | 6.65 | 2.75 |
| GAAAAGGGGAAGTCAGACTA | 7.67 | 7.14 | 3.37 |
| AGAAAGGGGAAGTCCAGACT | 7.42 | 6.93 | 3.14 |
| AGAAAAAGGAAGTGGATTAA | 5.66 | 6.12 | 3.22 |
| AACAAGAGGAAGTGAGAGGA | 4.97 | 5.31 | 2.72 |
| CAAATGAGGAACTGATGGGG | 5.63 | 6.4 | 1.51 |
| AATAAGAGGAAGTGCCTGGA | 7.02 | 6.98 | 3.48 |
| CAAACAGGGAAGTGGATGCT | 4.22 | 4.65 | 1.99 |
| AGTTTGGGGAAGTGATACAT | 5.09 | 5.46 | 1.93 |
| CAGAAAAGGAAGTGTGGTGC | 3.29 | 2.96 | 2.34 |
| AAAATGAGGAAGTTGGATGG | 8.35 | 7.3 | 3.82 |
| AGAGAGGGGAACTGCCGCAG | 1.81 | 1.85 | 0.0985 |
| GAAAACAGGAAGTCCCGTAG | 7.26 | 7.19 | 4.52 |
| CCTAAAGGGAAGTGTAAATA | 3.27 | 3.1 | 1.67 |
| ACAAAAAGGACCTGTGCCCC | -0.688 | -0.185 | -0.839 |

| Sequence | binding signal (PU.1 (IVT)) [z-score] | binding signal [1] [z-score] | binding signal [2] [z-score] |
| --- | --- | --- | --- |
| AAAATGAGGAACTGATGCGG | 6.61 | 6.72 | 2.36 |
| CCTGGGAGGAAGTGGGTGCC | 3.33 | 3.23 | 2.62 |
| AGCAAAAGGAAGTGAAAAAT | 2.86 | 2.29 | 2.51 |
| CGGAGGAGGAAGTGTCTGTT | 4.94 | 4.71 | 3.02 |
| AGTTAAGGGAAGTGGCCCAG | 3 | 3.25 | 1.45 |
| GAAAGGAGGAAGTGCAAAGA | 5.7 | 6.47 | 2.79 |
| GACAAGAGGAAGTGCAAGAT | 4.87 | 5.39 | 2.8 |
| CAAATGAGGAAGTGATGCGG | 8.08 | 7.2 | 4.15 |
| GAGAAGGGGAAGTGAAGATG | 5.25 | 5.94 | 2.4 |
| CTGAAGAGGAACTCCAGAGA | 2.67 | 2.82 | 1.01 |
| CCAAACAGGAACTACTGTGC | 3.89 | 4.04 | 2.17 |
| GAAAACAGGAAGTCAACGGC | 7.37 | 7.07 | 4.77 |
| ACAATGGGGAAGTGGCACTC | 5.32 | 5.93 | 2.32 |
| TAAAGGAGGAACTACTGTGA | 4.75 | 4.46 | 1.16 |
| GAAAAGGGGAAGTCAATGTT | 7.87 | 7.55 | 3.61 |
| AGAAAGGGGAAGTGCTACAC | 7.72 | 7.29 | 3.26 |
| GATAAGCGGAAGTCCTCTGT | 6 | 6.48 | 4.34 |
| AAAAAGAGGAAGGGGAAGAA | 6.26 | 6.18 | 2.55 |
| AAAATGAGGAAGTGCATTGA | 8.07 | 7.7 | 3.38 |
